Source: PubChem BioAssay AID504706 (National Center for Advancing Translational Sciences (NCATS), 2011)
The whole screen tested about 320,000 compounds, of which about 200 (0.062%) were called active. The inconclusive results got no clear call from the source; some entries with a clear call stand among them for comparison. Calls come from the whole dose curve; as a rule, active = well fitted activation curve with a large enough effect; inconclusive = small, poorly fitted or top-dose-only effect; inactive = no such curve, though single readings can be large or run the other way. No potency is given beside an inconclusive call; the fits are too rough.

Experiment: qHTS assay for re-activators of p53 using a Luc reporter; note: nearly all actives have a fitted effect of over 45% in size; for activity change, positive = activation: % of control where 0% means no effect
Settings: H1299 p53-A138V BP100-luciferase reporter, luminescence, 24 h; series mostly up to 92.2 µM; activity change, positive = activation: at the top concentration
Method in brief: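 p53-null H1299 cells stably carrying temperature-sensitive p53-A138V and a BP100-luciferase reporter were pinned with compounds (4-point, 1:5 series) and held 24 hrs at 37 deg C. Luminescence was read 10 min after detection reagent.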
Potency is the fitted concentration of half-maximal effect; tags give direction and shape of the fitted curve.

Compound	activity change, positive = activation	Potency
CCOC(=O)CNC(=O)CSc1nc(-c2cccc(C)c2)ns1	inactive: 1.38%	–
Cc1cccc(C(=O)O/N=C(\N)c2ccc(Br)cc2)c1	–	inconclusive [activator, partial curve, poor fit]
CCN(CC)S(=O)(=O)c1cccc(C(=O)N[C@H](C(=O)Nc2nc3ccccc3s2)C(C)C)c1	–	inconclusive [activator, single point]
COc1cc(OC)cc(C(=O)NCC(=O)Nc2ccc(-c3ccccc3)cc2)c1	–	inconclusive [activator, partial curve, poor fit]
O=c1/c(=C\c2cccn2-c2ccccc2)sc2nc3ccccc3n12	–	inconclusive [activator, partial curve, poor fit]
COc1ccc(-c2nnc(N(C)C(=O)C3CCCO3)s2)cc1 (centres undefined)	–	inconclusive [activator, partial curve, poor fit]
O=C(O)CCC(=O)NNC(=O)c1ccc(-c2ccccc2)cc1	inactive: 6.75%	–
CC(/C=C/c1ccco1)=N\NC(=O)c1cc(C)[nH]n1	–	inconclusive [activator, partial curve, poor fit]
Cc1cccc(OCC(=O)NCC(=O)N/N=C/c2cc(Br)cc(Br)c2O)c1	–	inconclusive [activator, partial curve]
CC1CCCCC1NC(=S)Nc1ccc(SC(F)F)cc1 (centres undefined)	–	inconclusive [activator, partial curve, poor fit]
C/C(=N\NC(=O)c1sccc1C)c1ccncc1	–	inconclusive [activator, partial curve, poor fit]
CC(C)(C)C(=O)O/N=C(\N)c1c(Cl)cccc1Cl	inactive: 1.44%	–
Cc1ccc(S(=O)(=O)c2c(C)cc(C)nc2Cl)cc1	inactive: 10.5%	–
CC(C)(C)N1CCC1CN (centres undefined)	inactive: 3.04%	–
Cc1ccnc(NC(=S)N2CCN(c3cccc(C(F)(F)F)c3)CC2)c1	–	inconclusive [activator, partial curve, poor fit]
COc1ccccc1N1CCN(/N=C/c2ccc(O)c(O)c2)CC1	inactive: 4.08%	–
COc1ccc(/C(=N\Nc2ccccc2C(=O)O)c2ccccc2)cc1	–	inconclusive [activator, single point]
Cc1ccc(S(=O)(=O)N2CCOCC2)cc1C(=O)OC1CCCCC1=O (centres undefined)	–	inconclusive [activator, single point]
Cc1ccc(-c2nc(-c3ccccc3)no2)cc1	–	inconclusive [activator, full curve, poor fit]
Cc1ncsc1C(=O)Nc1nc2c(s1)CC(C)CC2 (centres undefined)	–	inconclusive [activator, partial curve, poor fit]
Cc1cccc(/C=N/NC(=O)c2ccc(Br)cc2)c1	–	inconclusive [activator, partial curve, poor fit]
CN(C(=O)CCCN1C(=O)c2ccccc2C1=O)C1CCCCC1	–	inconclusive [activator, full curve, poor fit]

Compound	activity change, positive = activation	Potency
CCCCCNc1nc(-c2ccccc2)cs1	–	inconclusive [activator, partial curve, poor fit]
Cc1ccc(C(=O)Oc2ccc(C(=O)COC(=O)C3CC(=O)N(Cc4ccco4)C3)cc2)cc1 (centres undefined)	–	inconclusive [activator, single point]
CCCn1c(=O)c2ccccc2n2c(Sc3nnnn3-c3ccccc3)nnc12	–	inconclusive [activator, partial curve, poor fit]
CCc1ccc(NC(=O)COC(=O)CC2CCCC2)cc1	inactive: -1.29%	–
Nc1nc(-c2ccccn2)nc(N)c1Cc1ccccc1F	inactive: 24.1%	–
Cc1cccnc1NC(=O)c1ccc2c(c1)OCCO2	–	inconclusive [activator, full curve, poor fit]
Oc1ccc(Nc2nc(-c3ccc(O)cc3)cs2)cc1	–	inconclusive [activator, partial curve, poor fit]
Cc1ccc(C(=O)COC(=O)CNC(=O)Cc2ccccc2)cc1	–	inconclusive [activator, single point]
O=C(O)c1ccc2c(c1)C(=O)N(CCc1c[nH]c3ccccc13)C2=O	–	inconclusive [activator, partial curve, poor fit]
COc1cccc(CNC(=O)COC(=O)c2ccc(Cl)s2)c1	inactive: 1.17%	–
NC(=O)N/N=C/c1cn(-c2ccccc2)nc1-c1cccs1	inactive: -1.12%	–
CCCCCC/C(=N/O)c1ccccn1	–	inconclusive [activator, partial curve, poor fit]
O=C(NCCSc1c[nH]c2ccccc12)c1ccco1	–	inconclusive [activator, full curve, poor fit]
CCCCc1ccc(-c2nc(N)n[nH]2)cc1	–	inconclusive [activator, partial curve, poor fit]
CCOC(=O)N1CCN(CC(=O)Nc2c(C(=O)OC)[nH]c3cc(C)ccc23)CC1	inactive: -5.14%	–
Cc1ccc(S(=O)(=O)/N=C(/Nc2ccc(O)c(C(=O)O)c2)c2ccccc2)cc1	–	inconclusive [activator, single point]
COc1ccc2cc3cc(C(=O)N4CCCCC4C)oc3nc2c1 (centres undefined)	–	inconclusive [activator, partial curve, poor fit]
CN(C)c1ccc(N=Nc2ccccc2C(=O)OCC(=O)N(C)C2CCCCC2)cc1	–	inconclusive [activator, full curve, poor fit]
Cc1ccc(-c2noc(-c3ccccc3Br)n2)cc1	–	inconclusive [activator, partial curve, poor fit]
CC(C)(C)[C@@H]1C=C(C(=O)Nc2ccccc2)O[C@H](OCc2ccc(CO)cc2)C1	inactive: 16%	–
CCC(C)(C)C1CCC(=NNC(=O)c2ccc(Br)o2)CC1 (centres undefined)	–	inconclusive [activator, partial curve]
O=[N+]([O-])c1ccc(/C=N/n2c(-c3cccnc3)n[nH]c2=S)cc1	inactive: 0.586%	–
